# Reference: US7045532B2 (Millennium Pharmaceuticals, Inc., priority 1999, dated 2006)
# Target: soluble truncated form of human ACE2 (Homo sapiens, UniProt Q9BYF1)
# Conditions: 50 nM ACE-2, 50 μM peptide, room temperature, 2 hours, MALDI-TOF
# soluble truncated form of human ACE2, sequence (Q9BYF1 18-739): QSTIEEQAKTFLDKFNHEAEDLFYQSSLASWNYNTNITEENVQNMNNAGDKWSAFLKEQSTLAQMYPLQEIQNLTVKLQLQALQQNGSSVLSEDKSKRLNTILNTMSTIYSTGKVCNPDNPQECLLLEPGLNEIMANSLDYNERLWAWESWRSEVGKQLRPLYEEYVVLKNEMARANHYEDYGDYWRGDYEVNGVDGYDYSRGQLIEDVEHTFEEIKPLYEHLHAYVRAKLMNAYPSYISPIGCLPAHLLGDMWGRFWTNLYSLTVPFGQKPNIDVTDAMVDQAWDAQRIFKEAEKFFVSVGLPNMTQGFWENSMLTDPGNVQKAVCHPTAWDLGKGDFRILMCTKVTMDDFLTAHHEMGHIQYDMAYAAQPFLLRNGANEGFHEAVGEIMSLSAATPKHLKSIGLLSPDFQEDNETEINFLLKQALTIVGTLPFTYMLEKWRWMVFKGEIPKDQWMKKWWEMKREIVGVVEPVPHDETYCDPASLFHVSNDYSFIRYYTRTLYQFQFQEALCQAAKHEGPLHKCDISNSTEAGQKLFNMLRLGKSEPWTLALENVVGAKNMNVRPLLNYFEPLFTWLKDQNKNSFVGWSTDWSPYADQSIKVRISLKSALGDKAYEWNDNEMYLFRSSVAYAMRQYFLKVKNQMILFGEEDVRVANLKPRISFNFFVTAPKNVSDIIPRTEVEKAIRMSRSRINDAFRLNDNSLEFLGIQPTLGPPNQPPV
row,Substance,hydrolysis by ACE-2 (in words)
1,angiotensin II (1-8) (DRVYIHPF; listed as Homo sapiens),hydrolyze
2,dynorphin A 1-13 (YGGFLRRIRPKLK; listed as Homo sapiens),complete hydrolysis
